According to PubChem BioAssay AID624417 (National Center for Advancing Translational Sciences (NCATS), 2012):
“And” between values parts separate entries of the source, which are not always exact repeats. Identical values can stand only once. Hit rate of the full screen: of about 410,000 compounds, about 6,400 (1.6%) were called active. Inconclusive means that the source gave no clear call. Such entries were picked first, then a sample of the others. Calls follow the shape of the dose curve; as a rule, active = well fitted inhibition curve with a large enough effect; inconclusive = small, poorly fitted or top-dose-only effect; inactive = no such curve, though single readings can be large or run the other way. Potencies of inconclusive entries are doubtful fits and often do not repeat.

These compounds were tested against Glucagon-like peptide 1 receptor (Homo sapiens) (UniProt P43220) (assay: qHTS of GLP-1 Receptor Inverse Agonists (Inhibition Mode)). Settings: HEK293 GLP-1R CRE-luciferase, luminescence, 24 h, GLP-1R form is constitutively active; activity change, negative = inhibition: at 38.3 µM (top of the series) unless noted.
Sequence of UniProt P43220 (P43220 whole entry, looked up): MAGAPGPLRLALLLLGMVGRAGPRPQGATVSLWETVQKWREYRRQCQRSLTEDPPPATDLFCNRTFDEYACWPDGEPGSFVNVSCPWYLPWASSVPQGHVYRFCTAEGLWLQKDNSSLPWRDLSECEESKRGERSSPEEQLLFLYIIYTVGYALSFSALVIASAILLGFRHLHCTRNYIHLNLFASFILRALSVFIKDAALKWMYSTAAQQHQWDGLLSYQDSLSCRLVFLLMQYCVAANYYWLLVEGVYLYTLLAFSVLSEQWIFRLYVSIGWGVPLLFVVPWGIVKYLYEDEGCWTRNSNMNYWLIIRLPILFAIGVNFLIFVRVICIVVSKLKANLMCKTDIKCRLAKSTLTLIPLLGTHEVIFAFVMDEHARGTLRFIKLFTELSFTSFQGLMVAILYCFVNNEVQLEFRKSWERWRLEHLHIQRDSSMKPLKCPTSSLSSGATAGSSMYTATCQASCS
Outline: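 Using stably transfected HEK293 (constitutively active GLP-1R, cAMP-luciferase reporter), compounds were incubated 24 hr and luciferase measured by luminescence.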
% is scaled to controls: 0 for no effect and ±100 for the full control effect; potency is read from the fitted curve at half-maximal effect; tags tell the direction and shape of the fitted curve.
Also: nearly all actives have a fitted effect of over 55% in size.

Potency, inactive:
CCc1ccc(-c2nn(CC(=O)NCc3ccccc3)c3c2cnc2ccc(C)cc23)cc1
O=C(CN1CCC(C(=O)c2ccc(F)cc2)CC1)Nc1ccccc1
Cc1ccccc1CNC(=O)c1ccc(CSc2nc3cccnc3n2Cc2ccccc2)cc1
Cc1cc(-c2nsc(=O)o2)c(S(C)(=O)=O)s1
Nc1nc(Nc2ccccc2F)nc(NCc2ccco2)c1[N+](=O)[O-]
CCC1(C)Cc2sc3c(=O)[nH]c(=S)[nH]c3c2CO1 (stereo not drawn)
Cc1ccc(CCNC(=O)c2cc(C)nc3c2c(C)nn3-c2ccc(C)cc2)cc1
CCN(CC(=O)NC1CCS(=O)(=O)C1)S(=O)(=O)c1ccc(Cl)cc1C(F)(F)F (stereo not drawn)
CCCCN1C=C(C(=O)OC)C(c2ccccc2C(F)(F)F)C(C(=O)OC)=C1
O=C(COc1ncnc2ccccc12)Nc1ccc(Cl)c(S(=O)(=O)N2CCOCC2)c1
CCc1nn(CC(=O)NCc2ccc(OC)c(OC)c2)c(=O)c2cc3sc(C)cc3n12
Cc1ccccc1C(=O)OCc1cc(=O)n2c(C)csc2n1
CCCN1C(=O)/C(=C/c2ccc(C)o2)SC1=Nc1ccc(OCC)cc1

Potency, inconclusive:
O=C(N/N=C1\CC(c2ccccc2)Oc2ccccc21)c1ccc(O)cc1 (stereo not drawn) 12.6 µM [inhibitor, partial curve, poor fit]
COc1cccc(NC(=O)CN(C)C(=O)CCSc2ccc(C)cc2)c1 3.16 µM [inhibitor, full curve, poor fit]
CC(C)c1ccc(NC(=O)CCS(=O)(=O)c2cccc3nonc23)cc1 20 µM [inhibitor, partial curve, poor fit] and 10 µM [inhibitor, partial curve, poor fit]
Cc1ccc(NC(=O)Cc2ccsc2)cc1Cl 11.2 µM [inhibitor, single point]
CCOC(=O)N1CCN(C(=O)c2ccc3oc(CCCc4ccccc4)nc3c2)CC1 28.2 µM [inhibitor, single point]
COc1ccc2[nH]c(C)c(CCNC(=S)Nc3ccccc3C)c2c1 3.98 µM [inhibitor, partial curve, poor fit]
CCCN(C(=O)COc1cc(=O)n(CC)c2ccccc12)c1ccc(C(C)C)cc1 12.6 µM [inhibitor, partial curve, poor fit]
Cc1ccc(NCc2ccccc2O)c(C)c1 28.2 µM [inhibitor, single point]
OC(CN1CCCCCC1)CN(c1ccccc1)c1ccccc1 (stereo not drawn) 11.2 µM [inhibitor, partial curve, poor fit]
O=C(COc1ccc(C(=S)N2CCCC2)cc1)Nc1ccccc1C(F)(F)F 1.41 µM [inhibitor, partial curve, poor fit]
CC(NC(=O)CCc1ccccc1)c1cc2c(cc1Cl)OCCO2 (stereo not drawn) 12.6 µM [inhibitor, single point]
Cc1cccc(-n2c(Cc3ccccc3)nnc2SCc2ccc([N+](=O)[O-])cc2)c1 22.4 µM [inhibitor, partial curve, poor fit]
COc1ccc(OC)c(-c2csc(NC(=O)CN3C(=O)C4CCCCC4C3=O)n2)c1 (stereo not drawn) 11.2 µM [inhibitor, single point]
Clc1ccc(CSc2cc3c(nn2)-c2ccccc2CC3)cc1 28.2 µM [inhibitor, single point]
CCc1ccc(-n2c(SCc3ccccc3C)nc3[nH]ncc3c2=O)cc1 28.2 µM [inhibitor, single point]
COc1cccc(Cn2c(SCC(=O)N(C)c3ccccc3)nc3ccccc32)c1 12.6 µM [inhibitor, partial curve, poor fit]
S=C(NCCc1ccccc1)Nc1ccccc1 28.2 µM [inhibitor, single point]
Cc1ccc(N/C(N)=N/c2nc(C)cc(N3CCCCC3)n2)c(C)c1 10 µM [inhibitor, partial curve, poor fit]
C=CCNc1nc(NCc2ccccc2)nc(OCC)n1 14.1 µM [inhibitor, partial curve, poor fit]
O=C(NC1CC2CCC1C2)C1COc2ccccc2O1 (stereo not drawn) 10 µM [inhibitor, partial curve, poor fit]
COc1ccccc1/C=C/C(=O)OCC(=O)N1CCc2ccccc21 31.6 µM [inhibitor, single point]
COc1ccc(-c2csc(Nc3ccc(C)cn3)n2)cc1OC 8.91 µM [inhibitor, partial curve, poor fit]
CCN(CC1COc2ccccc2O1)C(=S)NC1CC2CCC1C2 (stereo not drawn) 28.2 µM [inhibitor, single point]
CCCC/C(C)=N/NC(=O)c1cn(-c2ccccc2)nc1-c1ccccc1 10 µM [inhibitor, single point]
Cc1cc(OC(C)C)nc(NCc2ccccc2)n1 12.6 µM [inhibitor, partial curve, poor fit]
CCc1ccc(OC)c(S(=O)(=O)Nc2ccc(Cc3ccncc3)cc2)c1 10 µM [inhibitor, partial curve, poor fit]
O=C(Nc1ccc(C(F)(F)F)cc1)C1CCN(c2cnccn2)CC1 10 µM [inhibitor, single point]
COC(=O)[C@@]1(Cc2ccc(F)cc2)[C@H]2c3cc(C(=O)N(C)C)n(Cc4ccc(Cl)c(C(F)(F)F)c4)c3C[C@H]2CN1C(=O)c1ccccc1 14.1 µM [inhibitor, single point]
Cc1cc(C)c(C)c(OCC(=O)N2CCCCCC2)c1 8.91 µM [inhibitor, partial curve, poor fit]
C=CCOC(=O)C(C#N)c1nc2ccccc2nc1N1CCCC1 (stereo not drawn) 7.08 µM [inhibitor, partial curve, poor fit]
CSc1ccc(CCNC(=O)c2ccc(CS(=O)Cc3ccccc3Cl)o2)cc1 (stereo not drawn) 14.1 µM [inhibitor, partial curve, poor fit]
CCOC(=O)Cn1c(=O)n(-c2ccccc2OC)c2nc(-c3ccccc3F)nc(C(N)=O)c21 28.2 µM [inhibitor, single point]
CCOC(=O)N1CCC(=C2c3ccc(Cl)cc3CCc3cccnc32)CC1 14.1 µM [inhibitor, single point]
CCN(CC)S(=O)(=O)c1ccc(NC(=S)NC(=O)CC(C)C)cc1 22.4 µM [inhibitor, single point]
CCc1ccc(-c2cn3c(n2)SCC3)cc1 28.2 µM [inhibitor, single point]
CCn1c(CCNC(=O)c2ccc(Cl)c(Cl)c2)nnc1SCCOc1ccc(OC)cc1 10 µM [inhibitor, partial curve]
CC(C)Cn1c(=O)c(C(=O)NCc2ccc3c(c2)OCO3)c(O)c2ccccc21 14.1 µM [inhibitor, partial curve, poor fit]
Cn1cc(CN2CCCC(C(=O)c3ccc(-c4ccccc4)c(F)c3)C2)cn1 (stereo not drawn) 11.2 µM [inhibitor, partial curve, poor fit]
CCCC1(c2ccccc2)NC(=O)N(CC(=O)Nc2ccc3c(c2)OCCO3)C1=O (stereo not drawn) 20 µM [inhibitor, single point]
COc1cc(C(=S)N2CCN(c3cccc(Cl)c3)CC2)ccc1O 22.4 µM [inhibitor, single point]
Cn1c(-[n+]2c(-c3ccccc3)cc(-c3ccccc3)cc2-c2ccccc2)nc2c([N+](=O)[O-])cccc21 12.6 µM [inhibitor, partial curve, poor fit]
Cc1ccc(C)c(CN2CCC(n3nccc3NC(=O)C3CCCC3)CC2)c1 28.2 µM [inhibitor, single point]
O=C(CCCCCNC(=O)N1CCn2c1nc1ccccc12)NCc1ccc(Cl)cc1 28.2 µM [inhibitor, single point]
COc1ccc(C(=O)CN(Cc2ccccc2)C2=NCCS2)cc1 5.62 µM [inhibitor, partial curve]
CCN(CCCNC(=O)Cn1ncc2c(=O)oc3ccccc3c21)c1cccc(C)c1 12.6 µM [inhibitor, partial curve, poor fit]
Cc1ccc(-c2nc(C(=O)NCC3CCCO3)cc3c2[nH]c2ccccc23)cc1 (stereo not drawn) 28.2 µM [inhibitor, single point]
CCN(CC)C(=O)CSc1nnc(-c2ccccc2)c(-c2ccccc2)n1 28.2 µM [inhibitor, single point]
O=C(Cn1c(=O)n(Cc2ccco2)c(=O)c2ccccc21)Nc1cccc(Cl)c1 7.94 µM [inhibitor, partial curve, poor fit]

Activity change, negative = inhibition, inactive:
COC(=O)c1ccc(COc2cccc(C)c2C)cc1 24.9% [at 7.66 µM]
CCS(=O)(=O)N1CCN(Cc2c[nH]c3ccccc23)CC1 -0.209% [at 7.66 µM]
